About 2,200 (0.71%) of roughly 310,000 compounds showed an effect of 50% or more. Effects have a minus sign here. The list shows a part of the results.
molecular target: human ether-à-go-go-related gene (hERG) potassium channel (human, UniProt Q12809); assay: primary screen, population patch clamp on CHO cells stably expressing hERG
Sequence (Q12809 whole entry, looked up): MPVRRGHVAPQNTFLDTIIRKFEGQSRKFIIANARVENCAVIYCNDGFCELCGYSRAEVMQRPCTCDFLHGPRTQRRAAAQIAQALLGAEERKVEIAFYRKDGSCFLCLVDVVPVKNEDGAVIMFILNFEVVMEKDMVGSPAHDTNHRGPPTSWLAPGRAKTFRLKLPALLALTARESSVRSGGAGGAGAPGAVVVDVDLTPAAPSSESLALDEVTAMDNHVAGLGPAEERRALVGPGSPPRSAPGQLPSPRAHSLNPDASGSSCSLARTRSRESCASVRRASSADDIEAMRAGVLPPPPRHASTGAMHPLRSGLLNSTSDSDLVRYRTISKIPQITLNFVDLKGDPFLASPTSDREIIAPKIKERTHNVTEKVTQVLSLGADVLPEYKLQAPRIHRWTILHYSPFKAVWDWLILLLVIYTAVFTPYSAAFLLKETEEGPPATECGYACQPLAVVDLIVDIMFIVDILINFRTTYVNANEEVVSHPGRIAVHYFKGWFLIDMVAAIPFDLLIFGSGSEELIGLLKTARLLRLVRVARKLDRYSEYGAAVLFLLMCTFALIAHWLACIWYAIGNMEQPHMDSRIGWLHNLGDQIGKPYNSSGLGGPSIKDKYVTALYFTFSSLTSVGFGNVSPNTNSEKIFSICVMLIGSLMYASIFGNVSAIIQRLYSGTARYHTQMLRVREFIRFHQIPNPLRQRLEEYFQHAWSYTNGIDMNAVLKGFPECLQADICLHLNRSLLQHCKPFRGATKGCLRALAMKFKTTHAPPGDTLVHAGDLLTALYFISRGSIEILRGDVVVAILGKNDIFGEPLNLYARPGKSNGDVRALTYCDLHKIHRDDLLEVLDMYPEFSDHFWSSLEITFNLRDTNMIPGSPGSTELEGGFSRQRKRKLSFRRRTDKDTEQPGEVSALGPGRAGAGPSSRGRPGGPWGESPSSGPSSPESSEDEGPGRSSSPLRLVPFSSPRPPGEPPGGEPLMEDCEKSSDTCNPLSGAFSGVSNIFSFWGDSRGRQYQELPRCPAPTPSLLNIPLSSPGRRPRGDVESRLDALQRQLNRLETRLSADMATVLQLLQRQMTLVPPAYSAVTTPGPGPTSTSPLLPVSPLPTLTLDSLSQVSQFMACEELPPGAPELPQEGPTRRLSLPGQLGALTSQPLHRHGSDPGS

Going from `Cc1ccc(S(=O)(=O)c2nnn3c2nc(NCCCN2CCCC2=O)c2ccccc23)cc1C` to `CCc1ccccc1NS(=O)(=O)c1ccc2[nH]cc(C(=O)NC3CCCC3)c(=O)c2c1`, the “hERG current change (%, negative = inhibition) at 1uM” value falls from 2.37% to -2.41%.

`Cc1ccc(-c2nc3c(c(=O)c4ccccc4n3C)c(=O)n2Cc2ccco2)cc1` and `O=C(COC(=O)c1cc(-c2ccco2)nc2ccccc12)NCc1ccc2c(c1)OCO2` are the same in “hERG current change (%, negative = inhibition) at 1uM” value: 12.8% for the first, 12.8% for the second.

Compared with `O=S(=O)(c1cccc(C(F)(F)F)c1)N1CCC(CO)(CCCc2ccccc2)CC1`, `N#Cc1ccccc1S(=O)(=O)N1CCN(C(=O)c2cc(-c3ccccc3)nn2-c2ccccc2)CC1` is higher in “hERG current change (%, negative = inhibition) at 1uM” value: 10.7% for the first, 18.9% for the second.

First: COC(c1ccccc1)c1nnc(CCC(=O)NCc2ccc3ncccc3c2)o1 (stereo not shown)
Second: Cc1ccc(NS(=O)(=O)c2ccc(OCC(=O)NCc3cccnc3)cc2)cc1
The “hERG current change (%, negative = inhibition) at 1uM” value of the first is lower: -11.5% for the first, -2.13% for the second.

Compared with `O=C(CS(=O)(=O)c1ccc(F)cc1)Nc1nnc(-c2cccs2)o1`, `O=S(=O)(NCc1ccc(F)cc1)c1ccc(Br)cc1Br` is higher in “hERG current change (%, negative = inhibition) at 1uM” value: 11.2% for the first, 14.3% for the second.

First: OCCOCCNc1ncnc2c1cnn2-c1ccccc1
Second: Clc1ccc(Cn2ncc3c(NCc4ccccc4)ncnc32)c(Cl)c1
The “hERG current change (%, negative = inhibition) at 1uM” value of the first is lower: 8.5% for the first, 10% for the second.

First: CC(C)n1c(-c2ccncc2)n[nH]c1=S
Second: COc1ccc(CNC(=O)c2cnccn2)cc1
The “hERG current change (%, negative = inhibition) at 1uM” value of the first is higher: 11.8% for the first, 2.57% for the second.

Compared with `CC1CN(C(=O)COC(=O)c2ccc(N)c([N+](=O)[O-])c2)CC(C)O1` (stereo not shown), `CCOc1cc(C2C(C#N)=C(N)OC3=C2C(=O)CC(C)(C)C3)cc([N+](=O)[O-])c1O` (stereo not shown) is higher in “hERG current change (%, negative = inhibition) at 1uM” value: 2.31% for the first, 6.51% for the second.

Compared with `CC(=O)NC(Cc1ccc(F)c(F)c1)C(=O)NC1CCN(c2nnnn2-c2ccccc2)CC1` (stereo not shown), `O=C(N/C(=C\c1ccccc1)C(=O)N1CCOCC1)c1ccc(Br)o1` is higher in “hERG current change (%, negative = inhibition) at 1uM” value: 1.39% for the first, 10.6% for the second.

Going from `O=C(O)CCn1c(=O)c2ccccc2c2ccccc2c1=O` to `COCCN(C(=O)COC(=O)/C(=C/c1ccccc1)NC(C)=O)c1c(N)n(Cc2ccccc2)c(=O)[nH]c1=O`, the “hERG current change (%, negative = inhibition) at 1uM” value rises from 7.1% to 8.77%.

Compared with `COc1cccc(OC)c1C(=O)N1CCN(Cc2ccncc2)CC1`, `COc1ccc(OC)c(NC(=O)CN2C(=O)COc3ccc(C)cc32)c1` is higher in “hERG current change (%, negative = inhibition) at 1uM” value: -2.4% for the first, 7.48% for the second.

Going from `COc1ccc(NC(=O)CN2C(=O)COc3ccc(S(=O)(=O)N4CCOCC4)cc32)cc1Cl` to `Cc1ccc(NC(=O)C(=O)NCC2CCCN2S(=O)(=O)c2cccs2)cc1C` (stereo not shown), the “hERG current change (%, negative = inhibition) at 1uM” value falls from 10% to 9.36%.

First: Cc1oc2cc3oc(=O)c(CC(=O)N[C@H](C(=O)N[C@@H](C(=O)O)c4ccccc4)C(C)C)c(C)c3cc2c1C
Second: COC(=O)CC1COc2ccccc2N1C(=O)c1cc(OC)c(OC)c(OC)c1 (stereo not shown)
The “hERG current change (%, negative = inhibition) at 1uM” value of the first is lower: 1.62% for the first, 13.1% for the second.

First: COCCNC(=O)COC(=O)CSCc1nc2ccccc2s1
Second: CC(=O)Nc1ccc(SCC(=O)NCCc2ccc(F)cc2)cc1
The “hERG current change (%, negative = inhibition) at 1uM” value of the first is lower: -1.22% for the first, 4.51% for the second.

First: NC(=O)c1ccccc1NC(=O)c1ccc2c(c1)OCO2
Second: O=C(NCc1ccc2c(c1)OCO2)C1CC(c2ccccc2O)=NO1 (stereo not shown)
The “hERG current change (%, negative = inhibition) at 1uM” value of the first is higher: 16% for the first, 9.44% for the second.

Compared with `N#Cc1nc(-c2ccc([N+](=O)[O-])cc2)oc1N1CCCCC1`, `C/C=C\C(=O)Nc1cccc(C2=NOC3(C2)C[C@H](C(N)=O)N(C(=O)Cc2ccc([N+](=O)[O-])cc2)C3)c1` (stereo partly shown) is lower in “hERG current change (%, negative = inhibition) at 1uM” value: 12.3% for the first, 4.09% for the second.

First: CCOC(=O)C1CCCCN1Cc1cccc(F)c1 (stereo not shown)
Second: O=C(Cn1nc(C(F)(F)F)c2c1CCC2)NCc1ccc(F)cc1
The “hERG current change (%, negative = inhibition) at 1uM” value of the first is higher: 16.9% for the first, 11.5% for the second.

First: C=CCc1ccc(OCCOCCNCCOC)c(OC)c1
Second: CCOc1ccc(-c2cc(CCCC(=O)NCCc3ccc(OC)c(OC)c3OC)no2)cc1
The “hERG current change (%, negative = inhibition) at 1uM” value of the first is higher: 11.7% for the first, 9.86% for the second.

Going from `CCOc1ccc(-c2c(C(=O)N/N=C/c3ccco3)nnn2-c2nonc2N)cc1` to `COc1ccc(-c2csc(N(CC(C)C)C(=O)c3ccco3)n2)cc1`, the “hERG current change (%, negative = inhibition) at 1uM” value falls from 21.6% to 15.5%.

Going from `Cc1nc(NC(=O)c2ccc([N+](=O)[O-])cc2Cl)sc1C(=O)N(C)C` to `Cn1nc(-c2ccc(Cl)cc2)cc1NC(=O)CCCC(=O)O`, the “hERG current change (%, negative = inhibition) at 1uM” value rises from 10.3% to 11.5%.

Compared with `CC(C)(C)NC(=O)NC(=O)CSc1ncn[nH]1`, `Cc1cc(C)n2c(SCc3nnc(-c4cccs4)o3)nnc2n1` is lower in “hERG current change (%, negative = inhibition) at 1uM” value: 13.2% for the first, 11.2% for the second.

For `CC1(C)CC(=O)c2cnc(N3CCN(c4ccccc4)CC3)nc2C1`, the “hERG current change (%, negative = inhibition) at 1uM” value was 8.02%.

Reference: PMC4336329 (PLoS ONE, 2015)
